Bridge positions count the residues as written; N and C are the ends. Square brackets hold non-standard residues; d marks the D form. Triazole bridges read from a SMILES are 1,4-linked. Ends that are not written are not given here. Peptide text beside a SMILES is read from it. * marks the point of attachment. ξ: configuration not given here. Biotinyl(3aR,4R,6aS) = O=C1N[C@@H]2[C@@H](CS[C@@H]2CCCCC(=O)*)N1; Biotin = O=C1N[C@H]2[C@H](CS[C@H]2CCCCC(=O)*)N1; Lys(N3) = [N-]=[N+]=NCCCC[C@H](N)C(=O)O; AEEEA = NCCOCCOCCOCC(=O)O; ξR = N=C(N)NCCCC(N)C(=O)O; Pra = C#CC[C@H](N)C(=O)O
Experiments:
[1] = target: His-tagged CD8α human recombinant protein (Homo sapiens, UniProt P01732); assay: CD8 ELISA (affinity assay) of macrocyclic peptide ligands
[2] = mouse, in vivo, iv

His-tagged CD8α human recombinant protein, sequence (P01732 22-235): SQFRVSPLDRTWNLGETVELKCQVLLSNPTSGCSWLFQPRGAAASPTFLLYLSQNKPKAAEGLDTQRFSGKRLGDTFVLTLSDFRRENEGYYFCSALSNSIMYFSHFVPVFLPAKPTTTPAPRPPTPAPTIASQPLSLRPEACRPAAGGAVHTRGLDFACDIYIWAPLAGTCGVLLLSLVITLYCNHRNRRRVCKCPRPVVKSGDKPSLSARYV

| Compound | EC50 [1] [nM] | activity in the intestine at 1-2 hours [2] | biodistribution and clearance route by PET (in words) [2] |
| --- | --- | --- | --- |
| CC(C)C[C@H]1NC(=O)[C@@H](CCCNC(=N)N)NC(=O)[C@@H](Cc2ccccc2)NC(=O)[C@@H](Cc2ccccc2)NC(=O)[C@@H](NC(=O)COCCOCCOCCNC(=O)CCCC[C@@H]2SC[C@@H]3NC(=O)N[C@@H]32)Cc2cn(nn2)CCCC[C@@H](C(N)=O)NC(=O)[C@@H](Cc2ccc(O)cc2)NC1=O [biotin-PEG3-Cy(ffrly)] ({Biotin-AEEEA}-[Pra][dF][dF][dR][dL][dY][Lys(N3)]-NH2; triazole 1-7) | 56 |  |  |
| CC(C)[C@H]1NC(=O)[C@@H](CC(N)=O)NC(=O)[C@@H](Cc2ccccc2)NC(=O)[C@@H](Cc2c[nH]c3ccccc23)NC(=O)[C@@H](CCCNC(=N)N)NC(=O)[C@@H](NC(=O)COCCOCCOCCNC(=O)CCCC[C@@H]2SC[C@@H]3NC(=O)N[C@@H]32)Cc2cn(nn2)CCCC[C@@H](C(N)=O)NC1=O [biotin-PEG3-Cy(rwfnv)] ({Biotin-AEEEA}-[Pra][dR][dW][dF][dN][dV][Lys(N3)]-NH2; triazole 1-7) | 62 |  |  |
| CC(C)C[C@H]1NC(=O)[C@@H](CO)NC(=O)[C@@H](NC(=O)COCCOCCOCCNC(=O)CCCC[C@H]2SC[C@H]3NC(=O)N[C@H]32)Cc2cn(nn2)CCCC[C@@H](C(N)=O)NC(=O)CNC(=O)[C@@H](Cc2ccccc2)NC(=O)[C@@H](CCCNC(=N)N)NC1=O [biotin-PEG3-Cy(slrfG)] ({Biotinyl(3aR,4R,6aS)-AEEEA}-[Pra][dS][dL][dR][dF]G[Lys(N3)]-NH2; triazole 1-7) | 20 |  |  |
| CC(C)C[C@H]1NC(=O)[C@H]2CCCN2C(=O)[C@@H](Cc2c[nH]c3ccccc23)NC(=O)[C@@H](NC(=O)COCCOCCOCCNC(=O)CCCC[C@@H]2SC[C@@H]3NC(=O)N[C@@H]32)Cc2cn(nn2)CCCC[C@@H](C(N)=O)NC(=O)[C@@H](Cc2ccccc2)NC(=O)[C@@H](CCCNC(=N)N)NC1=O [biotin-PEG3-Cy(wplrf)] ({Biotin-AEEEA}-[Pra][dW][dP][dL][dR][dF][Lys(N3)]-NH2; triazole 1-7) | 16 |  |  |
| CC(C)[C@H]1NC(=O)CNC(=O)CNC(=O)[C@@H](Cc2ccc(O)cc2)NC(=O)[C@@H](NC(=O)COCCOCCOCCNC(=O)CCCC[C@H]2SC[C@H]3NC(=O)N[C@H]32)Cc2cn(nn2)CCCC[C@@H](C(N)=O)NC(=O)C(CCCNC(=N)N)NC1=O (stereo partly drawn) [biotin-PEG3-Cy(yGGvr)] ({Biotinyl(3aR,4R,6aS)-AEEEA}-[Pra][dY]GG[dV][ξR][Lys(N3)]-NH2; triazole 1-7) | 10 |  |  |
| [^18F]FB-labeled Cy(HGRGH): macrocycle anchor Cy(HGRGH), aminooxy-derivatized and labeled with 4-[^18F]fluorobenzaldehyde (oxime) (triazole (positions not given here); not fully specified (N-terminus, C-terminus, bridges); also: exact cyclisation residues not given here) |  | small amount of activity in the intestine | kidney clearance to the bladder (on the order of one hour) with little liver activity |
| [^18F]FB-labeled Cy(wplrf): macrocycle anchor Cy(wplrf), aminooxy-derivatized and labeled with 4-[^18F]fluorobenzaldehyde (oxime) (WPLRF; not fully specified; cyclic; aminooxy; [18F]fluorobenzaldehyde oxime label; VARIANT (1)..(5) D-amino acid) |  |  | predominantly liver and intestinal uptake with some clearance to the bladder at 2 hours post-injection |

— patent publication US12594350B2, “CD8-specific capture agents, compositions, and methods of using and making” (Regeneron Pharmaceuticals, Inc., priority 2016, dated 2026)
